These results are taken from the RNAGym collection of RNA variant scans (doi:10.1093/nar/gkz1192).

B1: CPEB3 Ribozyme (parent)
chain: UAACAGGGGGCCACAGCAGAAGCGUUCACGUCGCAGCCCCUGUCAGAUUCUGGUGAAUCUGCGAAUUCUGCUGUAUAUCUC

Read counts are not given, so values of variants with three or more changes are uncertain.

The series covers variants of B1. Put plainly: self-cleavage, relative activity (ratio to wild type); higher = more cleavage; in vitro, sequencing. The procedure, abridged: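 Libraries of CPEB3 self-cleaving ribozyme mutants came from rounds of error-prone PCR and carried barcodes, which DNA sequencing matched to variants. In vitro transcription used T7 RNA polymerase at 37°C for 5 hours, with a further 15 min in DNase I before EDTA stopped the reaction; the ribozymes cleaved during both steps. The RNA was reverse transcribed with template switching and sequenced on Illumina. Relative activity is the cleaved/total read fraction of a variant divided by that of the unmutated ribozyme, averaged over three batches with at least 5 reads.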
On to A5G A45U U54C U72A U76C, for which the self-cleavage amounted to 0.21.

A5G C14A A21U U26C A57G: the self-cleavage is 0.08.

In the case of A5G A13G U80A, the self-cleavage was found to be 0.57.

In the case of A5G A28C U49C U60A U78C, the self-cleavage came to 0.09.

In the case of A5G C14U G33U C39U, the self-cleavage was determined as 0.03.

As for A5C U25C A35G U58C, the self-cleavage is 0.67.

Take A5G A13G A18C U25C A57G A77G: the self-cleavage was 0.24.

Consider A5G G9C A15G U41C U76A, for which the self-cleavage is 0.85.

For the variant A5G C11U A20U U69A, the self-cleavage came to 0.25.

For the variant A5G G9A G22U U41A, the self-cleavage came out at 0.31.

On to A5G A18U U25C C40U U41A, for which the self-cleavage turned out to be 0.07.

Turning to A5G C12U A13G A18G G73C, the self-cleavage came to 0.53.

As for A5G C14U A15G A45G U51C U54C, the self-cleavage is 0.47.

A5G A20U U26A U51A: the self-cleavage came to 0.25.

Consider A5G U25A U41A U43A U49C U72C U78C, for which the self-cleavage worked out at 0.1.

Consider A5G A45G U67C, for which the self-cleavage is 0.46.

For A5G G8A A15G A28U U31A U51C, the self-cleavage turned out to be 0.32.

Regarding A5G A45G G63A, the self-cleavage amounted to 0.41.

Turning to A5G G6A A18U, the self-cleavage is 0.34.

As for A5G A13U G30U U58C U78C, the self-cleavage is 0.21.

A5G A56G A75G: the self-cleavage is 0.19.

For A5G C40G U48C, the self-cleavage is 0.29.

Regarding A5G G8A G10A A13C U69A, the self-cleavage was determined as 0.11.

As for A5G C17A U26C G55A U66C U76C, the self-cleavage is 0.21.

Take A5G C37A C39A U72C U74C: the self-cleavage was found to be 0.45.

Regarding A5G A56U A57G, the self-cleavage amounted to 0.14.

In the case of A5G C11U A45G U54A A75C, the self-cleavage amounted to 0.46.

With A5C G6C U66C U67C C68U, the self-cleavage came out at 0.11.

With A5G A18G A47G U49C U78C, the self-cleavage is 0.4.

Consider A5C A35G A47U U60C A77U, for which the self-cleavage was 0.14.

Turning to A5G A28G G30A U41A C59A U69C, the self-cleavage is 0.06.

Take A5G A13U A35G U69A U78C: the self-cleavage was found to be 1.01.

A5G C23G A45G U60G U72C C81U: the self-cleavage came to 0.11.

As to A5G G46U G61C, the self-cleavage was 0.25.

Consider A5G A45G U58C C62U, for which the self-cleavage was found to be 0.07.

Take A5G A21G U43C A64G: the self-cleavage came to 0.1.

For the variant A5G A20U A45U, the self-cleavage was found to be 0.44.

A5G A28G A35G A45G U72C U74A: the self-cleavage came to 0.66.

Regarding A5C A47G U58C A77G, the self-cleavage was 0.81.

In the case of A5G A15U A28U U60C, the self-cleavage stood at 0.31.

Take A5G A13G A56G: the self-cleavage was determined as 0.85.

On to A5G A35G U76C, for which the self-cleavage came out at 1.21.

A5G C34G U43C A56U: the self-cleavage came to 0.13.

In the case of A5C A45G G63U U78C, the self-cleavage was 0.83.

In the case of A5G G9A A35G U41A, the self-cleavage was determined as 0.11.

On to A5G A28G A35G G52A, for which the self-cleavage came to 0.96.

Take A5G A15G U26C C38A A47G U69C U78C: the self-cleavage came to 0.07.

For A5G A28G U31C A56U U60C, the self-cleavage turned out to be 0.24.

A5G A56G U72A: the self-cleavage was 0.34.

A5G C50U U66C: the self-cleavage is 0.28.

As for A5G C12U U25G U41C A47U A65U A77G, the self-cleavage amounted to 0.03.

With A5G A18U C40U A56U, the self-cleavage is 0.11.

In the case of A5G U25C A56G U60C U67C U72A, the self-cleavage was 0.77.

As for A5G C23G U25C A35G A64G A65U U69C, the self-cleavage is 0.09.

As to A5G A13G A18U A65G U76G, the self-cleavage came out at 0.1.

As to A5C G6C U41A G52A, the self-cleavage was determined as 0.68.

With A5G A20U A57G U78A, the self-cleavage was determined as 0.81.

With A5G A20U A21G C40G U67A U78C U80C, the self-cleavage turned out to be 0.06.

A5G G24U U25A A28U A57G U78C: the self-cleavage worked out at 0.08.

On to A5C U54C A64G U80G, for which the self-cleavage came to 1.

A5G G7A U31G U60A U80C: the self-cleavage was determined as 0.07.

In the case of A5G A28G C44A G61A, the self-cleavage amounted to 0.41.

Regarding A5G A28G A65G, the self-cleavage came to 0.3.

As to A5C A15U A18G U25C A47U U69A, the self-cleavage was determined as 0.07.

With A5G C39A U54G U80C, the self-cleavage is 0.27.

Turning to A5G U25C U26A C27U, the self-cleavage is 0.28.

As for A5G C12A A21U A47U, the self-cleavage is 0.26.

Turning to A5G G19A A45C, the self-cleavage was 0.15.

For A5G G33A A65U, the self-cleavage was 0.25.

Consider A5G A13G G24A U41A A57G U66A, for which the self-cleavage stood at 0.04.

As to A5C G6U C12A A65G G70A U72A, the self-cleavage worked out at 0.24.

On to A5G U25C A45G, for which the self-cleavage worked out at 0.39.

As to A5G A13G A47G U54G U74A, the self-cleavage worked out at 0.18.

For the variant A5G A28U A35G U41C U48A A65U, the self-cleavage turned out to be 0.13.

Take A5G U25C U43A U51G: the self-cleavage is 0.34.

A5G A18G A28G U66C C68U U69C: the self-cleavage came to 0.4.

A5G C39U U60C: the self-cleavage amounted to 0.32.

With A5G A15U C34A C79A, the self-cleavage stood at 0.14.

For A5G A20U U31C U58C U78G, the self-cleavage was 0.27.

Turning to A5C A35G C38U U43A, the self-cleavage is 1.25.

A5G G55U U76C A77G: the self-cleavage is 0.43.

On to A5C A57G U58A, for which the self-cleavage came to 0.18.

In the case of A5G A35G A47G U67G, the self-cleavage is 0.79.

Take A5G A13G A28U A35G U51A U54A U80C: the self-cleavage is 0.13.
